In a collection of fitness landscapes (doi:10.1016/j.celrep.2020.107928):
Whole data set: some 81,000 sequences, median “one-hybrid fitness for binding parS DNA” near -0.17, cut for the highest 2% near 0.51. The list shows a part of the results.

B1: Caulobacter ParB omega fusion; a variant is named by its letters at X, in order, B8GW30 (parent)
chain: MESVVVGEPGMSEGRRGLGRGLSALLGEVDAAPAQAPGEQLGGSREAPIEILQRNPDQPRRTFREEDLEDLSNSIREKGVLQPILVRPSPDTAGEYQIVAGERAWRAAQRAGLKTVPIMVRELDDLAVLEIGIIENVQRADLNVLEEALSYKVLMEKFERTQENIAQTIGKSXSHVANXMRLLXLPDEVQSYLVSGELTAXHARAIAAAADPVALAKQIIEGGLSVRETEALARKAPNLSAGKSKGGRPPRVKDTDTQALESDLSSVLGLDVSIDHRGSTGTLTITYATLEQLDDLCNRLTRGI

Variants of: B1
Test: one-hybrid fitness for binding parS DNA (scaled: cognate 1, non-cognate 0); higher = stronger binding
Conditions: with parS DNA site
Outline: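 Bacterial one-hybrid selection in E. coli USO rpoZ- hisB- pyrF- with a HIS3 reporter carrying the site 19 bp from the promoter, screening Caulobacter ParB libraries with four specificity codons randomised (NNS). Cells grew 48 hours at 37°C on M9-minus-histidine plus 0.1 mM IPTG and 5 mM 3-AT. Plasmids before and after selection were Illumina-sequenced, three replicate libraries pooled, and variants under 10 reads dropped. Fitness is the log change in variant-to-wild-type read ratio, rescaled to cognate 1, non-cognate 0.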

Variant	one-hybrid fitness for binding parS DNA
CGAG	≤ 0.2
PRQP	≤ 0.2
WNWT	≤ 0.2
DYSL	≤ 0.2
TKHI	≤ 0.2
LPRQ	≤ 0.2
ILRV	≤ 0.2
LGHM	≤ 0.2
LYKY	≤ 0.2
VCKH	≤ 0.2
ELMS	≤ 0.2
KRQN	≤ 0.2
SWSD	≤ 0.2
GNKW	≤ 0.2
ATPK	≤ 0.2
DRWG	≤ 0.2
LNQG	≤ 0.2
KSVL	≤ 0.2
LRSF	≤ 0.2
HRGC	0.315
ITKL	≤ 0.2
CHPQ	≤ 0.2
ACGD	≤ 0.2
KSTI	≤ 0.2
RLQM	0.352

Variant	one-hybrid fitness for binding parS DNA
EPLD	≤ 0.2
VTGW	≤ 0.2
CHTT	≤ 0.2
TWCC	≤ 0.2
NDRV	≤ 0.2
EEYR	≤ 0.2
EWTK	≤ 0.2
NTYE	≤ 0.2
VVTG	≤ 0.2
PGAN	≤ 0.2
NING	≤ 0.2
FWPN	≤ 0.2
AEVG	≤ 0.2
DQTN	≤ 0.2
FMCG	≤ 0.2
DPPS	≤ 0.2
LQSL	≤ 0.2
TRKM	≤ 0.2
SGEC	≤ 0.2
AMVS	≤ 0.2
LLTI	≤ 0.2
MDNY	≤ 0.2
EPQT	≤ 0.2
ECLK	≤ 0.2
QIYA	≤ 0.2

Variant	one-hybrid fitness for binding parS DNA
SEGT	≤ 0.2
DWTC	≤ 0.2
RGWS	0.573
KDNR	≤ 0.2
HRGR	≤ 0.2
PCCS	≤ 0.2
FTRR	≤ 0.2
PNPY	≤ 0.2
CNLP	≤ 0.2
LNTT	≤ 0.2
KASM	≤ 0.2
RSVM	0.265
VAGC	≤ 0.2
GWSR	≤ 0.2
GIGG	≤ 0.2
PIPQ	≤ 0.2
MMTL	≤ 0.2
QIIM	≤ 0.2
WHRF	≤ 0.2
IPLM	≤ 0.2
PANF	≤ 0.2
LVTM	≤ 0.2
CLSQ	≤ 0.2
LCSF	≤ 0.2
VDNS	≤ 0.2

Variant	one-hybrid fitness for binding parS DNA
CVLL	≤ 0.2
DTYC	≤ 0.2
TYKF	≤ 0.2
FASM	≤ 0.2
WPLY	≤ 0.2
LPWC	≤ 0.2
TGKD	≤ 0.2
LTMV	≤ 0.2
VKIV	≤ 0.2
LSCN	≤ 0.2
AMAR	≤ 0.2
TFQW	≤ 0.2
VPTM	≤ 0.2
PSWN	≤ 0.2
CRNF	≤ 0.2
SRKI	≤ 0.2
GKST	≤ 0.2
TEAV	≤ 0.2
YSPR	≤ 0.2
GWAS	≤ 0.2
KTID	≤ 0.2
CMRS	≤ 0.2
WKNA	≤ 0.2
LTKM	≤ 0.2
PERN	≤ 0.2

Variant	one-hybrid fitness for binding parS DNA
TMAL	≤ 0.2
TSCW	≤ 0.2
NHTY	≤ 0.2
HTVQ	≤ 0.2
SMVM	≤ 0.2
NFFR	≤ 0.2
QRQY	≤ 0.2
AISA	≤ 0.2
AGEK	≤ 0.2
IELV	≤ 0.2
RVTK	≤ 0.2
PANW	≤ 0.2
SQES	≤ 0.2
DAHF	≤ 0.2
AENW	≤ 0.2
PADV	≤ 0.2
YPCE	≤ 0.2
TIIM	0.352
RFHP	≤ 0.2
KADT	≤ 0.2
ASNS	≤ 0.2
SLAP	≤ 0.2
YKHA	≤ 0.2
SYRR	≤ 0.2
HLDS	≤ 0.2

Variant	one-hybrid fitness for binding parS DNA
EGMP	≤ 0.2
ITVV	≤ 0.2
GIFL	≤ 0.2
VTNC	≤ 0.2
RAAN	0.448
TQDF	≤ 0.2
CHPF	≤ 0.2
PQLD	≤ 0.2
YTPG	≤ 0.2
YVGR	≤ 0.2
PYLF	≤ 0.2
SYSY	≤ 0.2
RHIF	≤ 0.2
PLVY	≤ 0.2
VKNR	≤ 0.2
APYE	≤ 0.2
TIMM	≤ 0.2
GVSG	≤ 0.2
QPLD	≤ 0.2
LYQH	≤ 0.2
PEIS	≤ 0.2
TNAF	≤ 0.2
YTMC	≤ 0.2
NCST	≤ 0.2
LYAR	≤ 0.2

Variant	one-hybrid fitness for binding parS DNA
LFTC	≤ 0.2
SHFR	≤ 0.2
MYPE	≤ 0.2
PGTI	≤ 0.2
CYVT	≤ 0.2
CHAS	≤ 0.2
MWRS	≤ 0.2
RQSV	≤ 0.2
ISED	≤ 0.2
EGDR	≤ 0.2
AMEM	≤ 0.2
RTHK	≤ 0.2
SCAW	≤ 0.2
QYAG	≤ 0.2
RGML	≤ 0.2
DNST	≤ 0.2
GLRY	≤ 0.2
VSTH	≤ 0.2
GING	≤ 0.2
QNGT	≤ 0.2
NPQG	≤ 0.2
YQHS	≤ 0.2
TGVL	≤ 0.2
ETHP	≤ 0.2
ANRF	≤ 0.2

Variant	one-hybrid fitness for binding parS DNA
WHVS	≤ 0.2
DAKT	≤ 0.2
FRFK	≤ 0.2
YPQR	≤ 0.2
YSQC	≤ 0.2
KCKC	≤ 0.2
RWHG	0.754
FGFR	≤ 0.2
RETS	0.352
RGNV	≤ 0.2
KNNF	≤ 0.2
YQFY	≤ 0.2
LPSQ	≤ 0.2
RIPC	0.626
RYQE	≤ 0.2
IALW	≤ 0.2
QQLP	≤ 0.2
RAGT	0.92
KTWY	≤ 0.2
NKCG	≤ 0.2
